Data: the supplement of paper PMC9174493
The list shows a part of the results. Single values of this set are uncertain. Values with irradiation are relative to irradiated vehicle.

Legend:
A549-Dual [1] = assay: NF-kB reporter (SEAP) activity, viability-corrected, relative to vehicle (fold change vs vehicle); higher = more activation of STING-IRF / NF-kB immune response reporter; conditions: 10 µM
A549-Dual [2] = assay: ISRE reporter (Lucia luciferase) activity, viability-corrected, relative to vehicle (fold change vs vehicle); higher = more activation of STING-IRF / NF-kB immune response reporter; conditions: 10 µM
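Wherever NF-kB reporter (SEAP) activity, viability-corrected, relative to vehicle is given: viability correction based on the alamar blue assay, with concentrations leaving 10% survival or less dropped.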

Structure (SMILES)	NF-kB reporter (A549-Dual [1]; irradiation: 8 Gy/4 fr)	NF-kB reporter (A549-Dual [1]; irradiation: none)	ISRE reporter (A549-Dual [2]; irradiation: 8 Gy/4 fr)	ISRE reporter (A549-Dual [2]; irradiation: none)
O=C([O-])CN(CCN(CC(=O)[O-])CC(=O)[O-])CCN(CC(=O)[O-])CC(=O)[O-].[Ca+2].[Na+].[Na+].[Na+] [pentetate calcium trisodium hydrate]	0.6	0.604	0.65	0.765
COC(=O)N(C)c1c(N)nc(-c2nn(Cc3ccccc3F)c3ncccc23)nc1N [Riociguat (BAY 63-2521)]	0.649	1.19	0.568	0.777
COc1ccc(C2C(=O)c3ccccc3C2=O)cc1 [Anisindione]	0.9	0.658	0.96	0.673
NC(=O)OCC(COC(N)=O)c1ccccc1 [Felbamate]	0.729	0.753	0.744	0.703
CCn1cc(C(=O)O)c(=O)c2cc(F)c(N3CCNCC3)nc21 [Enoxacin Sesquihydrate]	0.873	0.973	0.852	0.776
CCCC(CCC)C(N)=O [Valpromide]	0.823	0.829	0.819	0.546
CCCCCCCCCCCCCCCC(=O)OC1C(SC)OC(C(NC(=O)C2CC(CCC)CN2C)C(C)Cl)C(O)C1O.Cl (stereo unspecified) [Clindamycin palmitate HCl]	0.847	0.954	1.02	0.826
CN(C)CCCN1c2ccccc2Sc2ccc(C(F)(F)F)cc21.Cl [Triflupromazine hydrochloride]	0.827	1.19	0.904	1.4
CC1(Cn2ccnn2)C(C(=O)O)N2C(=O)CC2S1(=O)=O (stereo unspecified) [Tazobactam]	0.954	0.879	1.11	0.748
N=C(N)NCCC[C@H](N)C(=O)O [L-arginine]	1.3	0.948	1.34	1.06
CCOC(=O)Nc1ccc(NCc2ccc(F)cc2)nc1N.O=C(O)/C=C/C(=O)O [Flupirtine maleate]	0.729	0.906	0.653	0.726
CC1(C)C2CCC1(C)C(O)C2 (single isomer, unassigned; (-)) [(-)-Borneol]	0.69	0.587	0.623	0.436
COCCCOc1cc(CC(CC(N)C(O)CC(C(=O)NCC(C)(C)C(N)=O)C(C)C)C(C)C)ccc1OC.COCCCOc1cc(CC(CC(N)C(O)CC(C(=O)NCC(C)(C)C(N)=O)C(C)C)C(C)C)ccc1OC.O=C(O)/C=C/C(=O)O (stereo unspecified) [Aliskiren Hemifumarate]	1.03	1.07	1.06	0.865
CC(C)N(CCCCOCC(=O)NS(C)(=O)=O)c1cnc(-c2ccccc2)c(-c2ccccc2)n1 [Selexipag]	0.531	0.8	0.554	0.768
COC(=O)OCOc1c2n(ccc1=O)N(C1c3ccccc3SCc3c1ccc(F)c3F)C1COCCN1C2=O (stereo unspecified) [Baloxavir marboxil]	0.51	0.796	1.17	3.49
OC1COC(O)C(O)C1O (stereo not drawn) [D(-)-Arabinose]	0.814	0.841	0.718	0.56
CC(C)(C)CC(C)(C)c1ccc(OCCOCC[N+](C)(C)Cc2ccccc2)cc1.[Cl-] [Benzethonium Chloride]	0.703	1.77	0.147	0.529
NC(CSCCCO)C(=O)O (stereo unspecified) [Fudosteine]	0.741	0.678	0.91	0.694
CN/C(=C\[N+](=O)[O-])NCCSCc1ccc(CN(C)C)o1.Cl [Ranitidine Hydrochloride]	0.843	0.959	0.816	0.902
CCCc1nn(C)c2c(=O)[nH]c(-c3cc(S(=O)(=O)N4CCN(C)CC4)ccc3OCC)nc12.O=C(O)CC(O)(CC(=O)O)C(=O)O [Sildenafil Citrate]	0.782	0.551	0.878	0.819
Cc1cn(C2CC(O)C(CO)O2)c(=O)[nH]c1=O (stereo unspecified) [Thymidine]	0.501	0.731	0.561	0.623
CCCCN1CCCCC1C(=O)Nc1c(C)cccc1C.Cl (stereo unspecified) [Bupivacaine HCl]	0.664	0.924	0.681	0.913
CC(C)NCC(O)COc1ccc(CC(N)=O)cc1 (stereo unspecified) [Atenolol]	0.884	0.987	0.795	0.607
CC1NC(=O)C(N)CNC(=O)C(C2CCNC(N)=N2)NC(=O)C(=CNC(N)=O)NC(=O)C(CNC(=O)CC(N)CCCN)NC1=O.O=S(=O)(O)O (stereo unspecified) [Capreomycin Sulfate]	1.01	0.874	1.02	1.01
COC1C(OC(=O)/C=C/C=C/C=C/C=C/C(=O)O)CCC2(CO2)C1C1(C)OC1CC=C(C)C (stereo unspecified) [Fumagillin]	0.658	0.924	0.537	0.828
CC(c1cc2ccccc2s1)N(O)C(N)=O (stereo unspecified) [Zileuton]	0.868	1.14	1.06	1.01
CC1=C(C(=O)O)N2C(=O)C(NC(=O)C(N)C3=CCC=CC3)C2SC1 (stereo unspecified) [Cefradine]	0.92	0.847	1.03	1.14

Structure (SMILES)	NF-kB reporter (A549-Dual [1]; irradiation: 8 Gy/4 fr)	NF-kB reporter (A549-Dual [1]; irradiation: none)	ISRE reporter (A549-Dual [2]; irradiation: 8 Gy/4 fr)	ISRE reporter (A549-Dual [2]; irradiation: none)
CN(C)c1cc(CNCC(C)(C)C)c(O)c2c1CC1CC3C(N(C)C)C(O)=C(C(N)=O)C(=O)C3(O)C(O)=C1C2=O.Cc1ccc(S(=O)(=O)O)cc1 (stereo unspecified) [Omadacycline tosylate]	0.624	0.823	0.649	0.813
CC(=O)O.CC(=O)O.CCC(C)CC(C)CCCCCCCCC(=O)NC1CC(O)C(NCCN)NC(=O)C2C(O)CCN2C(=O)C(C(O)CCN)NC(=O)C(C(O)C(O)c2ccc(O)cc2)NC(=O)C2CC(O)CN2C(=O)C(C(C)O)NC1=O (stereo unspecified) [Caspofungin Acetate]	1.06	0.953	0.878	1.03
Nc1ccn(C2CCC(CO)O2)c(=O)n1 (stereo unspecified) [Zalcitabine]	0.937	0.88	1.14	0.728
Cc1c[nH]c(=O)[nH]c1=O [Thymine]	0.737	0.789	0.675	0.633
Cl.N=C(N/N=C/c1ccc(Cl)cc1)N/N=C/c1ccc(Cl)cc1 [Robenidine Hydrochoride]	0.813	1.02	0.795	0.961
CC(C)(Oc1ccc(CCNC(=O)c2ccc(Cl)cc2)cc1)C(=O)O [Bezafibrate]	0.96	0.687	0.982	0.729
O=C1CCc2ccc(OCCCCN3CCN(c4cccc(Cl)c4Cl)CC3)cc2N1 [Aripiprazole]	0.744	0.823	0.773	1.11
O=S(=O)([O-])c1cc(O)ccc1O [Calcium Dobesilate]	1.02	0.727	1.21	0.596
Cc1ncc([N+](=O)[O-])n1CCOC(=O)c1ccccc1 [Metronidazole Benzoate]	1.05	1.11	0.989	0.894
CN1CCN(C2=Nc3cc(Cl)ccc3Nc3ccccc32)CC1 [Clozapine]	0.782	1.28	1.11	1.87
CN(C)CCOC(=O)C(c1ccccc1)C1(O)CCCC1.Cl (stereo unspecified) [Cyclopentolate Hydrochloride]	0.941	0.752	0.968	0.612
NC1CONC1=O [L-Cycloserine]	0.927	0.958	0.893	0.95
CCCNC(C)C(=O)Nc1ccccc1C.Cl (stereo unspecified) [Prilocaine hydrochloride]	0.541	1.27	0.619	0.928
COc1cc(N)c(Cl)cc1C(=O)NC1CC[NH+](Cc2ccccc2)CC1.O=C(O)CC(O)C(=O)[O-] [Clebopride (malate)]	0.813	1.18	0.71	0.93
CCN1CCCC1CNC(=O)c1cc(S(N)(=O)=O)ccc1OC (stereo unspecified) [Sulpiride]	0.835	1.28	0.776	0.74
CN1CCN(C2=Nc3ccccc3Oc3ccc(Cl)cc32)CC1.O=C(O)CCC(=O)O [Loxapine Succinate]	0.96	0.794	1.22	1.14
CN(Cc1ccc(C(C)(C)C)cc1)Cc1cccc2ccccc12 [Butenafine]	0.9	0.908	0.595	0.578
O=c1ccn(C2OC(COP(=O)([O-])OP(=O)([O-])OP(=O)([O-])O)C(O)C2O)c(=O)[nH]1.[Na+].[Na+].[Na+] (stereo unspecified) [UTP, Trisodium Salt]	0.869	0.761	0.792	0.678
Cl.Clc1ccccc1CN1CCc2sccc2C1 [Ticlopidine HCl]	0.937	1.36	0.743	0.967
CCn1cc(C(=O)O)c(=O)c2ccc(C)nc21 [Nalidixic acid]	0.809	1.06	0.806	0.892
COC(=O)C(c1ccccc1Cl)N1CCc2sccc2C1.O=S(=O)(O)O (stereo unspecified) [Clopidogrel]	0.756	1.06	0.837	0.82
O=C(O)c1cccnc1Nc1cccc(C(F)(F)F)c1 [Niflumic acid]	0.803	0.955	0.625	0.606
O=c1c(-c2ccc(O)cc2)coc2cc(OC3OC(CO)C(O)C(O)C3O)ccc12 (stereo unspecified) [Daidzin]	0.886	1.09	0.647	1.09
CCCN1CCCCC1C(=O)Nc1c(C)cccc1C.Cl (stereo unspecified) [Ropivacaine HCl]	0.938	1.06	1.09	0.854
C=CCCCCCCCCC(=O)[O-].C=CCCCCCCCCC(=O)[O-].[Zn+2] [Zinc Undecylenate]	0.739	0.946	0.71	0.816
Cc1cc(NS(=O)(=O)c2ccc(N)cc2)nc(C)n1 [sulfaisodimidine]	0.811	0.899	0.768	0.751
O=C([O-])C1=C(CSc2nnnn2CS(=O)(=O)[O-])CSC2C(NC(=O)C(O)c3ccccc3)C(=O)N12.[Na+].[Na+] (stereo unspecified) [Cefonicid sodium]	0.773	0.9	0.845	0.767
